This is one part of the list. The full chains were built here from the parent and the listed change. Inactive controls read about 0.05.
B1: TEV protease; numbered along this chain (parent)
chain: MGESLFKGPRDYNPISSSICHLTNESDGHTTSLYGIGFGPFIITNKHLFRRNNGTLVVQSLHGVFKVKDTTTLQQHLVDGRDMIIIRMPKDFPPFPQKLKFREPQREERICLVTTNFQTKSMSSMVSDTSCTFPSGDGIFWKHWIQTKDGQCGSPLVSTRDGFIVGIHSASNFTNTNNYFTSVPKNFMELLTNQEAQQWVSGWRLNADSVLWGGHKVFMVKPEEPFQPVKEATQL

Variants of: B1
Test: raw area under fraction-flipped curve 0-4 h after induction (AUC4h, not background-subtracted), DNA-recorder readout of cleavage of the substrate (dimensionless); higher = more cleavage of the substrate by the protease variant
Details: temperature: 34 °C; time window: 0-4 h after rhamnose induction
Description: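 In vivo DNA recorder in E. coli TOP10(DE3) ΔrhaA at 34 °C. Each TEVp single-site mutant (parent TEVp 0) is paired with a single-site variant of the 7-mer TEVs (canonical ENLYFQ|S). The substrate sits between flexible linkers in a Bxb1-sfGFP-TEVs-SsrA fusion, so cleavage stabilises Bxb1 and speeds flipping of a recombination array, read by NGS. The value is the raw area under the fraction-flipped curve over 0-4 h after rhamnose induction (AUC4h), with ≥20 reads per time point. It is not background-subtracted; inactive controls average about 0.047.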
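Note: Bxb1 expression induced with 0.2% (w/v) L-rhamnose at OD600 near 0.5, cultures sampled hourly, flipped fraction per protease–substrate barcode pair counted by paired-end Illumina sequencing.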

Variant | area with substrate ENAYFQS | area with substrate ENCYFQS | area with substrate ENDYFQS | area with substrate ENEYFQS | area with substrate ENFYFQS | area with substrate ENGYFQS | area with substrate ENHYFQS | area with substrate ENKYFQS | area with substrate ENMYFQS | area with substrate ENNYFQS | area with substrate ENPYFQS | area with substrate ENQYFQS | area with substrate ENSYFQS | area with substrate ENTYFQS | area with substrate ENVYFQS | area with substrate ENWYFQS | area with substrate ENIYFQS | area with substrate ENYYFQS | area with substrate ENRYFQS
MGESLFKGPRDYNPISSSICHLTNESDGHTTSLYGIGFGHFIITNKHLFRRNNGTLVVQSLHGVFKVKDTTTLQQHLVDGRDMIIIRMPKDFPPFPQKLKFREPQREERICLVTTNFQTKSMSSMVSDTSCTFPSGDGIFWKHWIQTKDGQCGSPLVSTRDGFIVGIHSASNFTNTNNYFTSVPKNFMELLTNQEAQQWVSGWRLNADSVLWGGHKVFMVKPEEPFQPVKEATQL [P40H] | 0.0847 | 0.0595 | 0.0708 | 0.0573 | 0.0647 | 0.0615 | 0.0536 | 0.0569 | 0.0813 | 0.0387 | 0.0591 | 0.0604 | 0.069 | 0.0715 | 0.076 | 0.0453 | – | – | –
MGESLFKGPRDYNPISSSICHLTNESDGHTTSLYGIGFGIFIITNKHLFRRNNGTLVVQSLHGVFKVKDTTTLQQHLVDGRDMIIIRMPKDFPPFPQKLKFREPQREERICLVTTNFQTKSMSSMVSDTSCTFPSGDGIFWKHWIQTKDGQCGSPLVSTRDGFIVGIHSASNFTNTNNYFTSVPKNFMELLTNQEAQQWVSGWRLNADSVLWGGHKVFMVKPEEPFQPVKEATQL [P40I] | 0.0519 | – | 0.0607 | 0.0535 | 0.0642 | – | 0.0668 | 0.0594 | 0.0811 | 0.0321 | 0.059 | 0.0619 | 0.06 | 0.0537 | 0.0554 | – | 0.0432 | 0.0791 | –
MGESLFKGPRDYNPISSSICHLTNESDGHTTSLYGIGFGKFIITNKHLFRRNNGTLVVQSLHGVFKVKDTTTLQQHLVDGRDMIIIRMPKDFPPFPQKLKFREPQREERICLVTTNFQTKSMSSMVSDTSCTFPSGDGIFWKHWIQTKDGQCGSPLVSTRDGFIVGIHSASNFTNTNNYFTSVPKNFMELLTNQEAQQWVSGWRLNADSVLWGGHKVFMVKPEEPFQPVKEATQL [P40K] | 0.0669 | – | 0.0633 | 0.0575 | 0.0626 | 0.0546 | 0.0645 | – | 0.0781 | 0.0556 | 0.0553 | 0.0631 | 0.0424 | 0.072 | 0.0794 | 0.0338 | 0.0914 | 0.0385 | –
MGESLFKGPRDYNPISSSICHLTNESDGHTTSLYGIGFGLFIITNKHLFRRNNGTLVVQSLHGVFKVKDTTTLQQHLVDGRDMIIIRMPKDFPPFPQKLKFREPQREERICLVTTNFQTKSMSSMVSDTSCTFPSGDGIFWKHWIQTKDGQCGSPLVSTRDGFIVGIHSASNFTNTNNYFTSVPKNFMELLTNQEAQQWVSGWRLNADSVLWGGHKVFMVKPEEPFQPVKEATQL [P40L] | 0.0623 | 0.0622 | 0.0521 | 0.0567 | 0.0451 | 0.0446 | – | – | – | 0.0495 | 0.0685 | 0.0494 | 0.0491 | 0.0415 | 0.0822 | 0.0501 | 0.129 | 0.0431 | 0.0466
MGESLFKGPRDYNPISSSICHLTNESDGHTTSLYGIGFGRFIITNKHLFRRNNGTLVVQSLHGVFKVKDTTTLQQHLVDGRDMIIIRMPKDFPPFPQKLKFREPQREERICLVTTNFQTKSMSSMVSDTSCTFPSGDGIFWKHWIQTKDGQCGSPLVSTRDGFIVGIHSASNFTNTNNYFTSVPKNFMELLTNQEAQQWVSGWRLNADSVLWGGHKVFMVKPEEPFQPVKEATQL [P40R] | 0.0803 | – | – | 0.0635 | 0.0681 | 0.0633 | 0.0706 | – | – | 0.0591 | 0.07 | 0.0518 | 0.0605 | – | 0.077 | 0.0533 | 0.106 | – | 0.0609
MGESLFKGPRDYNPISSSICHLTNESDGHTTSLYGIGFGSFIITNKHLFRRNNGTLVVQSLHGVFKVKDTTTLQQHLVDGRDMIIIRMPKDFPPFPQKLKFREPQREERICLVTTNFQTKSMSSMVSDTSCTFPSGDGIFWKHWIQTKDGQCGSPLVSTRDGFIVGIHSASNFTNTNNYFTSVPKNFMELLTNQEAQQWVSGWRLNADSVLWGGHKVFMVKPEEPFQPVKEATQL [P40S] | 0.0547 | 0.0688 | 0.071 | 0.0594 | 0.0607 | 0.0576 | 0.0629 | 0.0564 | 0.0804 | 0.0526 | 0.0817 | 0.0562 | 0.0583 | 0.0582 | 0.0757 | – | 0.0906 | – | 0.0564
MGESLFKGPRDYNPISSSICHLTNESDGHTTSLYGIGFGTFIITNKHLFRRNNGTLVVQSLHGVFKVKDTTTLQQHLVDGRDMIIIRMPKDFPPFPQKLKFREPQREERICLVTTNFQTKSMSSMVSDTSCTFPSGDGIFWKHWIQTKDGQCGSPLVSTRDGFIVGIHSASNFTNTNNYFTSVPKNFMELLTNQEAQQWVSGWRLNADSVLWGGHKVFMVKPEEPFQPVKEATQL [P40T] | 0.0563 | 0.0611 | 0.0639 | 0.0567 | 0.0809 | 0.0654 | 0.0614 | – | 0.108 | 0.0646 | – | 0.0533 | 0.0755 | 0.0624 | 0.0742 | – | – | – | 0.06
MGESLFKGPRDYNPISSSICHLTNESDGHTTSLYGIGFGPFIKTNKHLFRRNNGTLVVQSLHGVFKVKDTTTLQQHLVDGRDMIIIRMPKDFPPFPQKLKFREPQREERICLVTTNFQTKSMSSMVSDTSCTFPSGDGIFWKHWIQTKDGQCGSPLVSTRDGFIVGIHSASNFTNTNNYFTSVPKNFMELLTNQEAQQWVSGWRLNADSVLWGGHKVFMVKPEEPFQPVKEATQL [I43K] | 0.0521 | 0.047 | 0.0475 | 0.0496 | 0.0519 | 0.0467 | 0.0529 | 0.0545 | 0.0458 | – | 0.0534 | 0.0406 | 0.0477 | 0.0423 | 0.0428 | – | – | 0.054 | 0.0458

Source: the supplement of paper PMC12217912
